# Experimental data: the supplement of paper PMC9446081
# In all, about 39,000 compounds went through this assay and about 220 (0.56%) showed activity. The list shows a part of the results.
# Test system: Escherichia coli K-12 BW25113
# Assay: relative growth (OD600 normalised to plate interquartile mean) (fraction); higher = less growth inhibition, active = 0.2 or less
# Details: 50 µM; LB; incubation time: overnight (16-24 h)
# 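Note: static incubation at 37 °C against the wild-type strain, values averaged over two biological replicates.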
row,SMILES,relative growth
1,COc1ccc(S(=O)(=O)N(C)C[C@H]2OCCCC[C@H](C)Oc3ccc(NC(=O)c4ccccc4)cc3C(=O)N([C@H](C)CO)C[C@H]2C)cc1,inactive: 1.03
2,C[C@H](CO)N1C[C@H](C)[C@H](CN(C)C(=O)Nc2ccc3c(c2)OCO3)Oc2ccc(NC(=O)Cn3cnnn3)cc2C1=O,inactive: 0.982
3,CN1C(=O)c2cc(NC(=O)c3ccc(F)c(F)c3)ccc2OC[C@@H]2O[C@H](CC(=O)N3CCOCC3)CC[C@H]21,inactive: 1.02
4,COc1cccc(C#Cc2cnc3c(c2)C(=O)N([C@H](C)CO)C[C@H](C)[C@H](CN(C)C(=O)C2CCOCC2)O3)c1,inactive: 0.976
5,Cc1noc(C)c1S(=O)(=O)Nc1ccc2c(c1)CC(=O)N([C@H](C)CO)C[C@H](C)[C@@H](CN(C)S(=O)(=O)c1c(C)noc1C)O2,inactive: 1.01
6,C[C@H]1CCCCO[C@H](CN(C)S(=O)(=O)c2cccs2)[C@@H](C)CN([C@@H](C)CO)C(=O)c2cc(NC(=O)c3ccccc3)ccc2O1,inactive: 1.04
7,CN(C)C(=O)c1ccc(-c2cccc(-c3nc(C(=O)NC4CCCCC4)cc4c3[C@H](CCO)N([S@@](=O)C(C)(C)C)C4)c2)cc1,inactive: 0.981
8,CCC1=C(C)CN(C(=O)NCCc2ccc(S(=O)(=O)NC(=O)NC3CCC(C)CC3)cc2)C1=O (configuration not stated),inactive: 0.983
9,Cc1cn(CCC(=O)O)c(=O)[nH]c1=O,inactive: 0.98
10,C[C@@H]1CCCCO[C@H](CN(C)Cc2ccc(Cl)c(Cl)c2)[C@@H](C)CN([C@@H](C)CO)C(=O)c2cc(NC(=O)Nc3ccccc3)ccc2O1,inactive: 1.02
11,C[C@H]1CN([C@@H](C)CO)C(=O)c2cccc(NS(=O)(=O)c3cn(C)cn3)c2O[C@H]1CN(C)CC1CCCCC1,inactive: 0.993
12,CC(=O)O[C@H](CC(=O)O)C[N+](C)(C)C,inactive: 1.02
13,CC(C)(C)C(=O)C[n+]1ccc(C(N)=O)cc1,inactive: 0.95
14,CCCN(C)C[C@@H]1OCCCC[C@H](C)Oc2ccc(NC(=O)c3ccccc3)cc2C(=O)N([C@@H](C)CO)C[C@@H]1C,inactive: 0.974
15,O=C(C[C@@H]1CC[C@@H]2[C@H](COC[C@@H](O)CN2Cc2cc(F)ccc2F)O1)N[C@@H]1CCN(Cc2ccccc2)C1,inactive: 1.02
16,C[C@H](CO)N1C[C@H](C)[C@@H](CN(C)C(=O)Nc2ccc3c(c2)OCO3)Oc2c(NC(=O)c3ccncc3)cccc2C1=O,inactive: 1.01
17,COCC(=O)Nc1ccc2c(c1)C(=O)N(C)C[C@@H](OC)[C@@H](C)CN(Cc1ccccc1F)[C@@H](C)CO2,inactive: 1.04
